The RNAGym collection of RNA variant scans (doi:10.1093/nar/gkz1192)
Read counts are not given, so values of variants with three or more changes are uncertain.

B1: CPEB3 Ribozyme (parent)
chain: UAACAGGGGGCCACAGCAGAAGCGUUCACGUCGCAGCCCCUGUCAGAUUCUGGUGAAUCUGCGAAUUCUGCUGUAUAUCUC

Variants of: B1
Experiment: self-cleavage, relative activity (ratio to wild type); higher = more cleavage; in vitro, sequencing
In short: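 CPEB3 self-cleaving ribozyme mutant libraries were made by rounds of error-prone PCR, barcoded, and transcribed in vitro with T7 RNA polymerase for 5 hours at 37°C. Cleavage occurred during transcription and a 15 min DNase I step before EDTA stop. RNAs were reverse transcribed with template switching and Illumina-sequenced, with DNA sequencing mapping barcodes to variants. Relative activity is the variant's cleaved/total read fraction divided by wild type's (minimum 5 reads), averaged across three batches.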

Q: Which self-cleavage does the source give for UAACAGGGUGCCACAGCAGAAGCGUUCACGUCGCAGCCCCUGUCAGAUCCUGGUGAAUCUGCGAGUCCUGCUGUAUAUCUC [G9U U49C A65G U67C] here?
A: Its self-cleavage is 0.31.

Q: For UAACAGGGUGCCACAGCAGAAGCGUUCACGUCGCAGCCCCUGUCAGAUUCUGGUGAACCUGCGAAUUCUGCUGUGUAUCUC [G9U U58C A75G], which self-cleavage is on record?
A: The self-cleavage was 0.09.

Q: For UAACAGGGUGCCACAGCAGAAGCGUUCACGUCGCAGCCCCUGUCAGAUUCUGGUGAAUCUGCGAAUUCCGCUGUACAUCUC [G9U U69C U76C], which self-cleavage is on record?
A: Its self-cleavage is 0.13.

Q: With UAACAGGGGACCCCAGCGGAAGCGUUCACGUCGCAGCCCCUGUCAGAUUCAGGUGAAUCUGCGAACUCUGCUGUAUAUCUC [G10A A13C A18G U51A U66C] as the variant, how does the self-cleavage read?
A: Its self-cleavage is 0.13.

Q: Which self-cleavage does the source give for UAACAGGGGACCGCAGCAGAAGCGUUCACGUCGCUGCCCCCGUCAGAUUCUGGUGAAUCUGCGAAUUCUGCUGUAUAUCUC [G10A A13G A35U U41C] here?
A: The self-cleavage was 0.19.

Q: Which self-cleavage does the source give for UAACAGGGGACCGCAGCAGAAGCGUUCACGUCGCAGCCCCUGUCAGAUUCUGGUGGAUCUGCGAAUUCUGCUGUAUAUCUC [G10A A13G A56G] here?
A: The self-cleavage was 0.05.

Q: For UAACAGGGGACCUCAGCGGAAGCGUUCACGUCGCAGCCCCUGUCAGAUUCUGGUGAGUCUGCGAAUUCUGCAGUAUAUCUC [G10A A13U A18G A57G U72A], which self-cleavage is on record?
A: Its self-cleavage is 0.18.

Q: With UAACAGGGGACCUCAGCAGAAGAGUCCACGUCGCAGCCCCUGUCAGAUUCUGGUGAAUCUGCGAAUUCUGCUGUAUAUCUC [G10A A13U C23A U26C] as the variant, how does the self-cleavage read?
A: Its self-cleavage is 0.07.

Q: Which self-cleavage does the source give for UAACAGGGGACCUCAGCAGAAGCGUUCACGCCGCAGCCCCUGUCAGAUUCUGGUGAAUCUGCGAAUUCUGCUGUAUAACUC [G10A A13U U31C U78A] here?
A: Its self-cleavage is 0.3.

Q: Which self-cleavage does the source give for UAACAGGGGACCUCAGCAGAAGCGUUCACGGCGCAGCCCCUGUUAGAUUCUGGUGAAUCUGCGAAUUCUGCCGUAUACCUC [G10A A13U U31G C44U U72C U78C] here?
A: The self-cleavage was 0.04.

Q: For UAACAGGGGACCACCGCAGAAGCGUUCACGUCGCAGCCCCAGUCAGAUUCUGGUGAAUCCGCGAGUUCUGCUGUAUACCUC [G10A A15C U41A U60C A65G U78C], which self-cleavage is on record?
A: Its self-cleavage is 0.04.

Q: For UAACAGGGGACCACGGCAGAAGCGUUCACGUCGCCGCCCCUGUCAGAUUCUGGUGGAUCUGCGAAUUCAGCUGUAUAUCUC [G10A A15G A35C A56G U69A], which self-cleavage is on record?
A: Its self-cleavage is 0.09.

Q: Which self-cleavage does the source give for UAACAGGGGACCACGGCAGAAGCGUUCACGUCGCAGCCCCUGUCAGGUUCUGGUGAAUCAGCGAGUUCUCCUGUAUAUCUC [G10A A15G A47G U60A A65G G70C] here?
A: The self-cleavage was 0.17.

Q: With UAACAGGGGACCACGGCAGAAGCGUUCACGUAGCAGCCCCUGUCAGAUUCUGGUGAAGCUGCGAAUUCUGCUGUAUAUCUC [G10A A15G C32A U58G] as the variant, how does the self-cleavage read?
A: The self-cleavage was 0.05.

Q: With UAACAGGGGACCACGGCAGAAGCUUUCACGUCGCAGCCCCAGUCAGAUUCUGGUGAUUCUGCGAAUUCUGCUGUAUAUCCC [G10A A15G G24U U41A A57U U80C] as the variant, how does the self-cleavage read?
A: The self-cleavage was 0.06.

Q: Which self-cleavage does the source give for UAACAGGGGACCACGGCAGAAGCGUUCACGUCGCAGCCCCGGUCAGAUUCUGGUGACUCUGCGAAUUCUGCCGUAUAUCUC [G10A A15G U41G A57C U72C] here?
A: Its self-cleavage is 0.08.

Q: For UAACAGGGGACCACUGCAGAAGCGUUCACGUCGCAGCCCCUGUCAGGUCCUGGUGAAUCUGCGAAUUCUGCUGUAUAUCUC [G10A A15U A47G U49C], which self-cleavage is on record?
A: Its self-cleavage is 0.04.

Q: Which self-cleavage does the source give for UAACAGGGGACCACUGCAGAAGCGUUAGCGUCGCAGCCCCCGUCAGAUUCUGGAGAAUCUGCGAAUUCUGCUGUAUAUCUC [G10A A15U C27A A28G U41C U54A] here?
A: The self-cleavage was 0.18.

Q: For UAACAGGGGACCACUGCAGAAGCGUUCACGUCGCAACCCCUGUCGGAUUCUGGUGAAUCUGCGAAUUCUGCUGUAUAUCUC [G10A A15U G36A A45G], which self-cleavage is on record?
A: Its self-cleavage is 0.2.

Q: With UAACAGGGGACCACUGCAGAAGCGCUCACGUCGCAGCCCCUGUCAGAUUCUGGUGAAUCUGCGAAUUCUGCUGUAUAUCUC [G10A A15U U25C] as the variant, how does the self-cleavage read?
A: The self-cleavage was 0.13.

Q: Which self-cleavage does the source give for UAACAGGGGACCACUGCAGAAGCGUUCACGUCGCAGCCCCUGUCAGAUUCUGGUGAAUCUGCGAAUUCUGCUGUAUAUCCC [G10A A15U U80C] here?
A: The self-cleavage was 0.07.

Q: Which self-cleavage does the source give for UAACAGGGGACCACAGCCGAUGCGUUCACGUCGCCGCCCCUGUCAGAUUCUGGUGAAUCUGUGAAUUCUGCUGUAUAUCUC [G10A A18C A21U A35C C62U] here?
A: The self-cleavage was 0.04.

Q: Which self-cleavage does the source give for UAACAGGGGACCACAGCGGGAGCGUUCACGUCGCAGCCCCUGUCAGAUUCUGGUGAAUCUGCGAAUUCUGCUGUAUAUCUC [G10A A18G A20G] here?
A: The self-cleavage was 0.33.

Q: Which self-cleavage does the source give for UAACAGGGGACCACAGCGGAAGCGUUCACGUCGCAGCCCCUGUCUGAUUCUGGAGAAUCUGCUAAUUCUGCUGUAUAUCUC [G10A A18G A45U U54A G63U] here?
A: Its self-cleavage is 0.07.

Q: For UAACAGGGGACCACAGCGGAAGCGUUCAUGUCGCAGCCCCUGUCGGAUUCUGGUGAAUCUGCAAAUUCUGCUGUAUAUCCC [G10A A18G C29U A45G G63A U80C], which self-cleavage is on record?
A: The self-cleavage was 0.04.

Q: For UAACAGGGGACCACAGCGGAAGCGUUCAUGUCGCAGCCCCUGUCAGAUUCCGGUGAAUCUGCGAACUCUGCUGUAUAUCUC [G10A A18G C29U U51C U66C], which self-cleavage is on record?
A: The self-cleavage was 0.07.

Q: For UAACAGGGGACCACAGCGGAAGCGUUCACGUCGCAGCCCCUGUCAGAUUCUGGCGAAUCUGCGAAUUCUGCUGUAUAUCUC [G10A A18G U54C], which self-cleavage is on record?
A: The self-cleavage was 0.22.

Q: Which self-cleavage does the source give for UAACAGGGGACCACAGCGGAAGCGUUCACGUCGCAGCCCCUGUCAGAUUCUGGUGAAUCUGCGAAUCCUGCUGUAUAACUC [G10A A18G U67C U78A] here?
A: The self-cleavage was 0.04.

Q: With UAACAGGGGACCACAGCUGAGGCGUUCACGUCGCAGCCCCAGUCAGAUUCUGGUGUCUCUGCGAAUCCUGCUGUAUAUCUC [G10A A18U A21G U41A A56U A57C U67C] as the variant, how does the self-cleavage read?
A: The self-cleavage was 0.04.

Q: With UAACAGGGGACCACAGCUGAAACGUUCACGCCGCAGCCCCUGUCAGAUCCUGGUGAAUCAGCGAAUUCUGCUGUAUAUCUC [G10A A18U G22A U31C U49C U60A] as the variant, how does the self-cleavage read?
A: Its self-cleavage is 0.04.

Q: Which self-cleavage does the source give for UAACAGGGGACCACAGCUGAAGCGUUCACGUCGCAGCCCCUGACAGAUUCUGGUGAAUCUGCGAAUUCCGCUGUAUAUCUC [G10A A18U U43A U69C] here?
A: The self-cleavage was 0.37.

Q: Which self-cleavage does the source give for UAACAGGGGACCACAGCUGAAGCGUUCACGUCGCAGCCCCUGCCAGAUUCUGGUGAGUCUGCGUAUUCUGCUGUAUAUCUC [G10A A18U U43C A57G A64U] here?
A: The self-cleavage was 0.1.

Q: For UAACAGGGGACCACAGCUGAAGCGUUCACGUCGCAGCCCCUGUCAGAUUCUGGUGAAUCUGCGAAUUCUGCCGUAUAUCUC [G10A A18U U72C], which self-cleavage is on record?
A: The self-cleavage was 0.34.

Q: Which self-cleavage does the source give for UAACAGGGGACCACAGCAGCAGCGUUCACGUCGCAGCCCCCGUCAGAUUCUGGUGAACCUGCGAAUUCUGCUGUAUAACUC [G10A A20C U41C U58C U78A] here?
A: The self-cleavage was 0.04.
